# From publication PMC12136788
# This is one part of the list.
# T1: UNK ZnF1-3 (human, UniProt Q9C0B0 31-174)
# T1 sequence: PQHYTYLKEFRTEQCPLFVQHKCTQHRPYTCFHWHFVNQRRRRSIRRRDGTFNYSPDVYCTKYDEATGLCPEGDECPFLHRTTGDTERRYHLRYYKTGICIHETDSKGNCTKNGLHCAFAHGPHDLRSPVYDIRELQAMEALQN
# B1: chr14:102547831:102547832:-_ENSG00000080824_ENST00000216281|hu_hu|motif|central (ssRNA)
# RNA: GGGAGUUCUACAGUCCGACGAUCCAGUGCACGUUACCCCAAUCUGUGAAAAUAAACCAACAUGAAACUCAAAAAGCAUUACGGGCUCUGCUUUAGUGCCUAAGGUAUCACAGCAUCACUUAGUAGACAGAAAUCUUAUCUUCCCAACAGAGGAUUGAGCAUCA
# B2: 153781052_153781172_3566_3pUTR_ENSG00000143614_ENST00000368655|human|control|control (ssRNA)
# RNA: GGGAGUUCUACAGUCCGACGAUCCAUUCCCCCCAGUGCACUCUGGCAGCUUCUGGAGCCAGAGAGGCAGGUGGGUGUACACUAUGAGAAGAGCAGAAACCCGUACCUUUAAGGGGCUUCCCUUACUUCAAAAACAGCCUGGUCCAACAGAGGAUUGAGCAUCA
# B3: chr6:38652254:38652255:-_ENSG00000124767_ENST00000373365|hu_hu|hu_hu_hu_mus_False|28_68 (ssRNA)
# RNA: GGGAGUUCUACAGUCCGACGAUCCGAGAACUUCAUAGCAGGGAAGUCAAGCUUCUGCAGGAGGGUCAUUCCAAGAACCCUCGUAUAAAAAUCCAGGGACUUCUUAGGAUCCUUCACUCUUAGCAUCGUUUGCUGCAGUAGAAACAACAGAGGAUUGAGCAUCA
# B4: chr16:94651144:94651145:+_ENSMUSG00000040785_ENSMUST00000117648|mus_hu|mus_mus_mus_hu_True|8_18 (ssRNA)
# RNA: GGGAGUUCUACAGUCCGACGAUCAUUUUCUUGAAUCAAGUGGCGAAUAACAUAGUCCACUGCUUCAUUUAGAAAAUUUCUGCUAGAAAAACAGGUUGUAUAGUCUUCUGUGCUCAAAACCUUCCAAGAGAGCAGCUCUUUGAGCAACAGAGGAUUGAGCAUCA
# B5: chr14:76904430:76904431:+_ENSMUSG00000022010_ENSMUST00000022587|mus_mus|mus_mus_mus_hu_True|78_78 (ssRNA)
# RNA: GGGAGUUCUACAGUCCGACGAUCUGCAGCCAAAAACACCCUCGUGGAAAAAAAGAGCAAGCUCCAGCAGCCUUGUAUAAGCUAGAUAAAAUCUUCUGGCUUUCCGCAGCCCAGGGAGAAACAGAAAACGGCAGCCCUAAUUUACAACAGAGGAUUGAGCAUCA
# B6: chr2:232320318:232320319:-_ENSG00000115053_ENST00000322723|hu_hu|hu_hu_hu_mus_True|68_78 (ssRNA)
# RNA: GGGAGUUCUACAGUCCGACGAUCACUAUUAAAGUCUACAAAACCAAACCCUUUGGAGGACCCAGUUUCCCGGUCAGUGACUAUUCUUGCACGAACAGAGCCCUCAAAUGAUUCUUUUAAGGUCUCUUCAGUGGUAUCCUCAGACAACAGAGGAUUGAGCAUCA
# B7: chr6:133138135:133138136:+_ENSG00000112306_ENST00000230050|hu_hu|FALSE|FALSE (ssRNA)
# RNA: GGGAGUUCUACAGUCCGACGAUCAACCACUUUACGGGGUUUCCCCUCUCUGUCAAUUUUACAAAGGCCUACCCAUUCUCCUAGUUUCUUGUUGUCAUCAACCUUAAUUAGGUUGAUUUGGUGUUCAGCACAAAGGGCCUCCACCAACAGAGGAUUGAGCAUCA
# B8: chr3:9792807:9792808:+_ENSG00000114026_ENST00000339511|hu_hu|FALSE|FALSE (ssRNA)
# RNA: GGGAGUUCUACAGUCCGACGAUCAGCCACCUCUUGGAAGUGGGAGUCCACGGAACCCCAGUGGUGAUACAGUUGAGCCAGGGUAACAUCUAGCUGGAAGUACUUGCGCACGGCCUCCAGCUCGUCUGGUGUGGGCCUGCUAGCCAACAGAGGAUUGAGCAUCA
# B9: 49064582_49067141_2978_CDS_ENSG00000008294_ENST00000262013|human|control|control (ssRNA)
# RNA: GGGAGUUCUACAGUCCGACGAUCUGCAUCUGAGUCAUUGCUCGACUGAUACACUGGGGAGAGGUCUUCUGGGAUCUGAACUCCCAAAGGAUCUGUAAAGACAUGCUCUGUGUAGACGCCAGUUUGGGAGAUGUCCACUGUGUCCAACAGAGGAUUGAGCAUCA
# B10: chr17:27185601:27185602:+_ENSG00000132591_ENST00000254928|hu_hu|motif|central (ssRNA)
# RNA: GGGAGUUCUACAGUCCGACGAUCGACCACACCUUCAGUGAGGGCUGCCGUGAGCUCCAGGAGAACUGACUUCUGCUUCAAACAAUCGGCCUUGUUCAUGACCAGGACACUAGGGAUCUGGGAGUACUUGGUCAAGCACCUGAGCAACAGAGGAUUGAGCAUCA
# B11: chr17:20919178:20919179:-_ENSG00000124422_ENST00000537526|hu_mus|FALSE|FALSE (ssRNA)
# RNA: GGGAGUUCUACAGUCCGACGAUCGAGGACGUCCAGGGCUGCAAUGAGGAACUCAUGUGCGUCCUGCUGCUCAUAACCCGCCAGGUGCCGGGCGUGCGUCCACACCAGGUGCAGCAGCUUGUAUGGAAUGUGUGGGGAGCGGUGCAACAGAGGAUUGAGCAUCA
# B12: 25472531_25475120_120_CDS_ENSG00000119772_ENST00000380746|human|control|control (ssRNA)
# RNA: GGGAGUUCUACAGUCCGACGAUCACACUCGUCUUUCAGGCUACGAUCCACGCGCCCAUUCCUUCUCACAACCCGCUCCAGGAUCCCCAUAAGGCCAGGUGCAGCCCCUCUGCAGUCGCGCUCAGGUGUGAGCCGCGGCCCUGACAACAGAGGAUUGAGCAUCA
# B13: chr1:46159212:46159213:+_ENSG00000159596_ENST00000372025|hu_mus|hu_hu_hu_mus_True|18_98 (ssRNA)
# RNA: GGGAGUUCUACAGUCCGACGAUCUCUGAUCCCUCCCAAGAAAGAUAGGAAACCGGCUCCAUAAGCCAUCUGAGUGAAAGCUAGGACGGGGAUAUAAGACUUUGUUAUUACCAUGAGCAGUGGUGGAGCAGUAAAGGGGAUUAACAACAGAGGAUUGAGCAUCA
# B14: chr4:103723762:103723763:-_ENSG00000109332_ENST00000394803|hu_mus|FALSE|FALSE (ssRNA)
# RNA: GGGAGUUCUACAGUCCGACGAUCUGUAAAUGCAACCUUAGGUGGUUUGAAGGGGUAGUCUGUAGGAAAAUGAAUUGUCAAAAAGAAUACACCACCUUGAUAUGGGCUGUCAUUAGGUCCCAUAAUUGUGGCUUGCCAAUGAAACAACAGAGGAUUGAGCAUCA
# B15: chr3:108163977:108163978:+_ENSMUSG00000068747_ENSMUST00000102632|mus_mus|FALSE|FALSE (ssRNA)
# RNA: GGGAGUUCUACAGUCCGACGAUCGUUUCUGUGCAUGGGGAUAAGAAGAAUGCAGCCCAAACCCUUCUCCCUGGAGGCUCAAACACAGGGACUCAGCAGAGCUGCCAGGGGACAGGAAGUCACCUGACCACAGCUGAGGGCAUGCAACAGAGGAUUGAGCAUCA
# B16: 49437221_49447787_131_CDS_ENSG00000166200_ENST00000299259|human|control|control (ssRNA)
# RNA: GGGAGUUCUACAGUCCGACGAUCGUACUGAUUUUCCAAAUCCACAUUUGGCUCGGAGUUACUAUCUUCAGAGUAUUCCAGGUCGUAGUCCUCCUCAUCAUCGCACAUGAAAUCAUCCUCCAUGUCAGACAUCUUGGCCGGGAGCAACAGAGGAUUGAGCAUCA
# B17: chr2:198266515:198266516:-_ENSG00000115524_ENST00000335508|hu_mus|FALSE|FALSE (ssRNA)
# RNA: GGGAGUUCUACAGUCCGACGAUCCUUCAUUUCUUCAUCAGGAGACUGAAAUUCUCGAAUGAGGAUUAACAUCACUUCUCUAGUAUAGUAGUUGGCAUAUUCUGCAUCCAUAAGAGGAAUAAGAUACCCAAUAGCCUUCAAGAACAACAGAGGAUUGAGCAUCA
# B18: chr13:97419678:97419679:-_ENSMUSG00000021670_ENSMUST00000022176|mus_mus|motif|central (ssRNA)
# RNA: GGGAGUUCUACAGUCCGACGAUCAGACACUUAAUUACAACAUAUACAGAUUGAUAGUUUACCAAAAAAUCUAGAGUUCAGCGGAAUAAGUUAAAAUGUCUCUAAAAGAAACUUGGCUUAGAGAAAUGGUCGUUUGUUUUUUGUCAACAGAGGAUUGAGCAUCA
# B19: 47180648_47180768_1381_ncRNA_ENSMUSG00000021377_ENSMUST00000138401|mouse|control|control (ssRNA)
# RNA: GGGAGUUCUACAGUCCGACGAUCUCCCAGUUUUUGAAGCUGUGAUGUGUUUAUCCUCAUUAUAAAAUUUCUAUGACACUUAGAGUUAACACAACCACAUUGAUGACACUUUGAGGGCAAAGCAGAACUGGACAGUCCUCAGUGCAACAGAGGAUUGAGCAUCA
# B20: chr1:202722107:202722108:-_ENSG00000117139_ENST00000367264|hu_hu|FALSE|FALSE (ssRNA)
# RNA: GGGAGUUCUACAGUCCGACGAUCCAUGAUGGUCACAAGCUGAUGGAGGAGAUCCGGCUGGGACACAAAGAGUUCUGGAGCUAGUUUCUUCAUUACAUUUUCUAGCUGCUCAGCAGCAUACCCUGGGACUCCAUACCAGGUUUUCAACAGAGGAUUGAGCAUCA
# B21: chr16:45382771:45382772:-_ENSMUSG00000022661_ENSMUST00000163230|mus_mus|mus_mus_mus_hu_True|48_68 (ssRNA)
# RNA: GGGAGUUCUACAGUCCGACGAUCCUGGGUCAUGUUAUAAGACAAAUGGACAGGGAGGGCAUGCUUCUGUAAAGAUGUGAGCUAUUGACUAAGACUAACAAUAUUUAUCUAGCUAUAAAAAUAAGUUAAAUGAAUAAGUUAAGACAACAGAGGAUUGAGCAUCA
# B22: chr6:128383251:128383252:-_ENSMUSG00000030357_ENSMUST00000032508|mus_hu|FALSE|FALSE (ssRNA)
# RNA: GGGAGUUCUACAGUCCGACGAUCGUUGAGGUGAGAGGCCAGUCGAAGGGCCUGUGCUUUCUGUGCUUCCUCAUUGGAAAAACUAGACUCAUAUUCCAGCCAAGACACGAUCUUCUUAUACUGUAGUAAAGCUUGCUUGUAUUUCAACAGAGGAUUGAGCAUCA
# Molecular target: T1, UNK ZnF1-3
# Experiment: nsRBNS (natural sequence RNA bind-n-seq); RBNS binding buffer (assumed for nsRBNS): 25 mM Tris pH 7.5, 150 mM KCl, 3 mM MgCl2, 0.01% Triton X-100, 500 ug/ml BSA, 20 U/ml SUPERase-In, 4 C; UNK is unkempt and MSI1 is Musashi-1; names of the RNAs are library labels; protein concentration not given here; high values mean tight binding
row,Binder,binding signal [enrichment R]
1,B1,2.23
2,B2,0.588
3,B3,0.494
4,B4,0.819
5,B5,2.26
6,B6,0.502
7,B7,0.63
8,B8,1.85
9,B9,0.639
10,B10,1.41
11,B11,0.926
12,B12,0.855
13,B13,1.97
14,B14,1.44
15,B15,0.834
16,B16,0.523
17,B17,1.35
18,B18,1.25
19,B19,0.792
20,B20,0.946
21,B21,2.02
22,B22,0.763
